Over roughly 81,000 sequences, “one-hybrid fitness for binding parS DNA” has its median near -0.17; the highest 2% begin near 0.51. The list shows a part of the results.

First the molecules themselves.
B1: Caulobacter ParB omega fusion; a variant is named by its letters at X, in order, B8GW30 (parent)
chain: MESVVVGEPGMSEGRRGLGRGLSALLGEVDAAPAQAPGEQLGGSREAPIEILQRNPDQPRRTFREEDLEDLSNSIREKGVLQPILVRPSPDTAGEYQIVAGERAWRAAQRAGLKTVPIMVRELDDLAVLEIGIIENVQRADLNVLEEALSYKVLMEKFERTQENIAQTIGKSXSHVANXMRLLXLPDEVQSYLVSGELTAXHARAIAAAADPVALAKQIIEGGLSVRETEALARKAPNLSAGKSKGGRPPRVKDTDTQALESDLSSVLGLDVSIDHRGSTGTLTITYATLEQLDDLCNRLTRGI

Variants of B1 are the subject of the test. The test is described as follows: one-hybrid fitness for binding parS DNA (scaled: cognate 1, non-cognate 0); higher = stronger binding. As to conditions: with parS DNA site. The method in brief:
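Pre- and post-selection plasmids were Illumina-sequenced, three replicate libraries were pooled, and any variant with under 10 reads was removed. The libraries were Caulobacter ParB with four specificity codons randomised, selected in E. coli USO through a HIS3 reporter whose site is 19 bp from the promoter. Cells grew 48 hours at 37°C on M9 without histidine, with 0.1 mM IPTG and 5 mM 3-AT. Fitness is the log change in variant-to-wild-type read ratio, rescaled against cognate and non-cognate.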
Turning to GPTT, the “one-hybrid fitness for binding parS DNA” value is no more than 0.2.
The result for QHQS reads no more than 0.2; that for LRKV, no more than 0.2.
DQMC: the “one-hybrid fitness for binding parS DNA” value is no more than 0.2.
The result for AKYA reads no more than 0.2; that for KAAQ, no more than 0.2.
For WRGA the value was no more than 0.2; for CWAS, no more than 0.2.
For the variant IWSS, the “one-hybrid fitness for binding parS DNA” value was no more than 0.2.
For ATVQ the value was no more than 0.2; for RFSY, 0.446.
The result for KQSW reads no more than 0.2; that for NGWN, no more than 0.2.
The result for QQYY reads no more than 0.2.
NIRE: the “one-hybrid fitness for binding parS DNA” value is no more than 0.2.
SHMG: the “one-hybrid fitness for binding parS DNA” value was no more than 0.2.
For LVTA, the “one-hybrid fitness for binding parS DNA” value is no more than 0.2.
Regarding PDPV, the “one-hybrid fitness for binding parS DNA” value was no more than 0.2.
The result for CWIG reads no more than 0.2.
On to QGGT, for which the “one-hybrid fitness for binding parS DNA” value is no more than 0.2.
For WQTG the value was no more than 0.2.
In the case of TLEF, the “one-hybrid fitness for binding parS DNA” value is no more than 0.2.
The result for VCFE reads no more than 0.2.
As to ALAM, the “one-hybrid fitness for binding parS DNA” value was no more than 0.2.
For SARK the value was no more than 0.2; for SAFA, no more than 0.2.
For QNWD the value was no more than 0.2; for GGRA, no more than 0.2; for KGPG, no more than 0.2.
For TMIK the value was no more than 0.2; for PFTQ, no more than 0.2.
With PCVC, the “one-hybrid fitness for binding parS DNA” value was no more than 0.2.
Consider VDHF, for which the “one-hybrid fitness for binding parS DNA” value was no more than 0.2.
The result for QRQH reads no more than 0.2; that for SGSL, no more than 0.2.
The result for HRHK reads no more than 0.2; that for CTQG, no more than 0.2.
The result for FGKF reads no more than 0.2; that for NQLE, no more than 0.2.
Take NCPF: the “one-hybrid fitness for binding parS DNA” value is no more than 0.2.
For MWEC the value was no more than 0.2; for VRRW, no more than 0.2.
The result for PAFT reads no more than 0.2; that for NGRD, no more than 0.2; that for LNVR, no more than 0.2.
For QDNF the value was no more than 0.2; for NGNR, no more than 0.2; for HHTP, no more than 0.2.
Turning to SNFT, the “one-hybrid fitness for binding parS DNA” value is no more than 0.2.
The result for PEAW reads no more than 0.2; that for MCLL, no more than 0.2; that for YSTY, no more than 0.2.
The result for PIPI reads no more than 0.2.
The result for VWNS reads no more than 0.2; that for AHNS, no more than 0.2; that for LHCG, no more than 0.2.
For LSVI, the “one-hybrid fitness for binding parS DNA” value was no more than 0.2.
KESF: the “one-hybrid fitness for binding parS DNA” value is no more than 0.2.
For QTGL the value was no more than 0.2.
The result for YMCS reads no more than 0.2; that for TRNV, no more than 0.2; that for VRIM, no more than 0.2.
For TPGD the value was no more than 0.2; for TGRF, no more than 0.2.
Take SNWL: the “one-hybrid fitness for binding parS DNA” value is no more than 0.2.
The result for QYLE reads no more than 0.2; that for RYAM, 0.267.
For FTKR the value was no more than 0.2; for RYLW, 0.218; for NTPY, no more than 0.2.
The result for PVVT reads no more than 0.2.
Turning to QSAE, the “one-hybrid fitness for binding parS DNA” value was no more than 0.2.
For PFYD the value was no more than 0.2.
For PDSY the value was no more than 0.2; for GKVW, no more than 0.2.
Regarding KPPL, the “one-hybrid fitness for binding parS DNA” value is no more than 0.2.
CQAW: the “one-hybrid fitness for binding parS DNA” value is no more than 0.2.
The result for FIGR reads no more than 0.2; that for WSAT, no more than 0.2.
For the variant LFEY, the “one-hybrid fitness for binding parS DNA” value is no more than 0.2.
For SAWL, the “one-hybrid fitness for binding parS DNA” value is no more than 0.2.
For RTDV the value was no more than 0.2; for TSDI, no more than 0.2.
For NAGP the value was no more than 0.2; for HCME, no more than 0.2; for DADN, no more than 0.2.
Turning to GLTS, the “one-hybrid fitness for binding parS DNA” value is no more than 0.2.
For LVGV the value was no more than 0.2; for PITY, no more than 0.2; for QPDC, no more than 0.2.
For KRLC the value was no more than 0.2; for KPVR, no more than 0.2; for SSTS, no more than 0.2.
For YARQ the value was no more than 0.2; for HKGL, no more than 0.2.
In the case of SSDF, the “one-hybrid fitness for binding parS DNA” value was no more than 0.2.
For QHKC the value was no more than 0.2; for SCSE, no more than 0.2.
For TRIR the value was no more than 0.2; for AIVI, no more than 0.2.
The result for LYNR reads no more than 0.2; that for TTMT, no more than 0.2; that for DESV, no more than 0.2.
For the variant SPAC, the “one-hybrid fitness for binding parS DNA” value is no more than 0.2.
For YCLC the value was no more than 0.2; for ATEM, no more than 0.2; for AIWV, no more than 0.2.
Consider NGEY, for which the “one-hybrid fitness for binding parS DNA” value is no more than 0.2.
RNIY: the “one-hybrid fitness for binding parS DNA” value is no more than 0.2.
For CTHE the value was no more than 0.2; for ALKS, no more than 0.2.
For FAPI the value was no more than 0.2; for EGRL, no more than 0.2; for PDSW, no more than 0.2.
The result for MQIV reads no more than 0.2.
GGIC: the “one-hybrid fitness for binding parS DNA” value was no more than 0.2.
The result for PHAT reads no more than 0.2.
Take MVNF: the “one-hybrid fitness for binding parS DNA” value is no more than 0.2.
The result for YGKV reads no more than 0.2.
For RLNL the value was no more than 0.2.
The result for QCKF reads no more than 0.2; that for LHTR, no more than 0.2; that for FSHM, no more than 0.2.
Consider YAPI, for which the “one-hybrid fitness for binding parS DNA” value was no more than 0.2.
For AHRN the value was no more than 0.2.
For IVNQ the value was no more than 0.2.
The result for CNVE reads no more than 0.2; that for RMIV, no more than 0.2; that for AKYL, no more than 0.2.
Take WKPG: the “one-hybrid fitness for binding parS DNA” value was no more than 0.2.
Regarding RKTY, the “one-hybrid fitness for binding parS DNA” value was 0.353.
On to RWHK, for which the “one-hybrid fitness for binding parS DNA” value is no more than 0.2.
Regarding IDCI, the “one-hybrid fitness for binding parS DNA” value was no more than 0.2.
In the case of GRWG, the “one-hybrid fitness for binding parS DNA” value was no more than 0.2.
The result for LCCF reads 0.3.
The result for LRRD reads no more than 0.2; that for RSIG, 0.822.
For SCRT the value was no more than 0.2.
With LRRR, the “one-hybrid fitness for binding parS DNA” value was no more than 0.2.
The result for CRAW reads no more than 0.2; that for GNFS, no more than 0.2.
As to VTAN, the “one-hybrid fitness for binding parS DNA” value is no more than 0.2.
For CDVV the value was no more than 0.2.
The result for PDAV reads no more than 0.2; that for FSPY, no more than 0.2; that for VARR, no more than 0.2.
The result for PEEM reads no more than 0.2; that for ALAY, no more than 0.2; that for EWVR, no more than 0.2.
As to QMSI, the “one-hybrid fitness for binding parS DNA” value is no more than 0.2.
Consider SPNQ, for which the “one-hybrid fitness for binding parS DNA” value is no more than 0.2.
On to PWFF, for which the “one-hybrid fitness for binding parS DNA” value was no more than 0.2.
The result for SKIC reads no more than 0.2; that for YAHC, no more than 0.2; that for HKLL, no more than 0.2.
The result for YACS reads no more than 0.2; that for SVHK, no more than 0.2; that for RILF, 0.269.
As to GLDM, the “one-hybrid fitness for binding parS DNA” value is no more than 0.2.
For the variant DEPI, the “one-hybrid fitness for binding parS DNA” value is no more than 0.2.
For PQNT, the “one-hybrid fitness for binding parS DNA” value is no more than 0.2.
Consider TESS, for which the “one-hybrid fitness for binding parS DNA” value was no more than 0.2.
As for RVQT, the “one-hybrid fitness for binding parS DNA” value is 0.913.
For EWPG the value was no more than 0.2; for CAAQ, no more than 0.2; for TSFG, no more than 0.2.
For YPIW the value was no more than 0.2.
For PTIP the value was no more than 0.2.
As to QHQY, the “one-hybrid fitness for binding parS DNA” value was no more than 0.2.
For RMGL the value was no more than 0.2; for WADS, no more than 0.2; for LINR, no more than 0.2.
Consider HILV, for which the “one-hybrid fitness for binding parS DNA” value is no more than 0.2.
For VGLM the value was no more than 0.2.
The result for QYKR reads no more than 0.2; that for PTHV, no more than 0.2; that for DGMG, no more than 0.2.
The result for IRSP reads no more than 0.2; that for TWKK, no more than 0.2.
For RRGK, the “one-hybrid fitness for binding parS DNA” value is no more than 0.2.
The result for TFVH reads no more than 0.2; that for TGEM, no more than 0.2; that for TRNH, no more than 0.2.
On to NLKG, for which the “one-hybrid fitness for binding parS DNA” value was no more than 0.2.
PYCG: the “one-hybrid fitness for binding parS DNA” value was no more than 0.2.
The result for PCTM reads no more than 0.2.
For VSSA the value was no more than 0.2; for IQAL, no more than 0.2.
Turning to RKKV, the “one-hybrid fitness for binding parS DNA” value is no more than 0.2.
The result for QPHI reads no more than 0.2; that for AEYE, no more than 0.2.
The result for FCSN reads no more than 0.2; that for MQNA, no more than 0.2.
For KLEF the value was no more than 0.2.
Consider EGVT, for which the “one-hybrid fitness for binding parS DNA” value is no more than 0.2.

Values taken from a collection of fitness landscapes (doi:10.1016/j.celrep.2020.107928).
